Hit rate of the full screen: of about 50,000 compounds, about 800 (1.6%) showed an effect of 50% or more. Some of the results follow.

This test deals with Bcl-2-like protein 10 (Homo sapiens) (UniProt Q9HD36). The test can be described thus: TR3 peptide-Bcl-B binding displacers, biochemical primary FP assay, phenotype converters (AID 1240).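 Further: 0% = Bcl-B with tracer peptide and DMSO and 100% = tracer peptide lacking Bcl-B.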 Particulars: GST-Bcl-B / FITC-TR3 peptide fluorescence polarization; stronger effect = higher value; compound at 3.75 mg/L.
Sequence of UniProt Q9HD36 (Q9HD36 whole entry, looked up): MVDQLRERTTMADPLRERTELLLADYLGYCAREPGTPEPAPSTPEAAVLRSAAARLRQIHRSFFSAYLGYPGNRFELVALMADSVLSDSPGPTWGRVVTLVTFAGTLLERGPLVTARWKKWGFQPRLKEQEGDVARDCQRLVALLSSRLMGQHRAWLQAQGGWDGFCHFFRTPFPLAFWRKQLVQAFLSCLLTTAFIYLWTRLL
For the compound `CC(=O)Nc1ccc(S(=O)(=O)Nc2ccc(I)cc2)cc1`, the displacement is -5.4%.

In the case of `COc1ccc(/C=C(/C#N)C(=O)Nc2cccc(Br)c2)c(C)c1`, the displacement came out at 25.4%.

`CC(C)=CCCC(C)N(C=O)C(C)CCC=C(C)C` (stereo not drawn): the displacement is -10.3%.

Consider `C=CCOC(=O)C(CC=C)(C(F)(F)F)C(F)(F)F`, for which the displacement was determined as 1.8%.

Regarding `Cc1ccc(-c2ccc(OCC(=O)Nc3ccccc3F)cc2)cc1`, the displacement was -5.1%.

With `Cc1ccc(C(=O)Nc2c(C(=O)NCc3ccco3)cnn2-c2ccccc2)cc1`, the displacement amounted to 9.9%.

For `O=C(CCN1C(=O)/C(=C/c2cccs2)SC1=S)Nc1cccc(F)c1`, the displacement was -21.4%.

`Cc1ccc(N=C(NO)c2ccc(Cl)cc2Cl)cc1`: the displacement is 15%.

Turning to `S=C(Nc1ccccc1)Nc1ccc(Oc2ccccc2)cc1`, the displacement is -12%.

With `COc1ccc([N+](=O)[O-])cc1C1NN=C(c2ccccc2)S1` (stereo not drawn), the displacement was -2.8%.

On to `COc1cc(/C=C2/C(=O)NC(=O)N(c3ccccc3)C2=O)ccc1OCC(=O)O`, for which the displacement is 6.2%.

For `O=C(O)C1(c2ccc3c(c2)OCCO3)CCCC1`, the displacement is -2.1%.

Regarding `COc1cc(/C=C2/C(=N)N3N=C(C(C)C)SC3=NC2=O)cc(Cl)c1OCCOc1ccccc1`, the displacement was -39%.

For `CCOC(=O)C1=C(O)/C(=C/c2ccc(N(C)C)cc2)SC1=Nc1ccc(OC)cc1`, the displacement came to 3.8%.

For `Cc1cc2ncn(C(=O)c3ccc(F)cc3)c2cc1C`, the displacement is -10.4%.

For `COc1ccc(NC(=O)c2ccccc2[N+](=O)[O-])cc1Cl`, the displacement was -1.8%.

Take `O=C1C2C3CC4C2C(=O)C2(c5ccccc5)C1C3C42` (stereo not drawn): the displacement is 1.4%.

For the compound `CC1CCc2c(sc(NC(=O)COc3ccccc3C(C)(C)C)c2C(N)=O)C1` (stereo not drawn), the displacement worked out at 15.1%.

Take `COc1cccc(Oc2nc(N)[nH]c(=O)c2Br)c1`: the displacement was -3.3%.

Regarding `O=C(c1ccco1)N(CCN(Cc1ccccc1)C(=O)c1ccco1)Cc1ccccc1`, the displacement was -3.7%.

As for `O=[N+]([O-])c1cccc(S(=O)(=O)Nc2ccc(OCc3ccccc3)cc2)c1`, the displacement is -0.4%.

Regarding `S=C(NCc1ccccc1)Nc1ccc(Cl)cc1`, the displacement is -5.8%.

As for `CC1CCN(C(=S)Nc2ccccc2)CC1`, the displacement was -5.3%.

Take `Cc1c(Cl)cccc1-c1ccc(C=O)o1`: the displacement came out at 19.1%.

With `CCC(C(=O)NCc1ccccc1OC)c1ccccc1` (stereo not drawn), the displacement was -7.1%.

On to `CCOc1cc(OCC)cc(C(=O)Nc2ccc(N3CCOCC3)cc2)c1`, for which the displacement came out at 10.2%.

As for `COc1ccc(N2C(=O)C3C(C2=O)C2C=CC3C23CC3)cc1` (stereo not drawn), the displacement was 1%.

As for `CC(/C=C/c1ccccc1)=N\Nc1nnc2c(n1)[nH]c1ccccc12`, the displacement came out at 7.2%.

With `CC(=O)OC1=NN(c2ccccc2)CC1`, the displacement was 3.3%.

`CC(=O)N1C(=O)/C(=C/C(=O)c2ccccc2)c2ccccc21`: the displacement is -2.4%.

For `Clc1ccc(CN2CCN(C3CCCC3)CC2)cc1`, the displacement was -3.3%.

Consider `Cc1cc(/C=N/n2cnnc2)c(C)n1-c1ccc(I)cc1`, for which the displacement is 7.3%.

In the case of `Cc1cc(OCC(=O)Nc2ccc(NC(=O)c3ccco3)cc2)ccc1Cl`, the displacement was 1.6%.

Turning to `CCc1nnc(NC(=O)c2ccc(Cl)cc2Cl)s1`, the displacement was 1.4%.

Consider `CC1SC(c2ccccc2)N(Cc2ccccc2)C1=O` (stereo not drawn), for which the displacement was -16.7%.

For the compound `Cc1c(C(=O)Nc2ccc(Cl)cc2)cnn1-c1ccccc1`, the displacement was -1.2%.

For the compound `Cc1ccc2[nH]c(C(=O)NN=C3CCCCC3)c(-c3ccccc3)c2c1`, the displacement was -47.7%.

As for `CCN(CC)C(=O)c1sc(NC(=O)c2ccc(OC)cc2OC)c(C(=O)OC(C)C)c1C`, the displacement was -5.3%.

In the case of `Cc1ccc(NC(=O)c2c(NC(=O)C(F)(F)F)sc3c2CCCCC3)c(C)c1`, the displacement is 1.4%.

With `COc1ccc(-c2noc(COc3ccc(Br)cc3)n2)cc1`, the displacement stood at 2.7%.

Regarding `COc1c(Cl)ccc(Cl)c1C(=O)NCCc1nc2ccccc2[nH]1`, the displacement was -5.5%.

As to `COc1ccc(C2(C)C(=O)c3ccccc3C2=O)cc1`, the displacement is -0.3%.

For `Cc1ccc(NC(=O)CC2Nc3ccccc3NC2=O)cc1Cl` (stereo not drawn), the displacement is -1.7%.

In the case of `COc1ccc(C(=O)CC(Nc2ccc(Cl)cc2)c2ccc(Cl)cc2)cc1` (stereo not drawn), the displacement was -19.3%.

Regarding `COc1ccc(C2=C/C(=C\c3ccc4c(c3)OCO4)C(=O)O2)cc1`, the displacement was 117%.

For `CC(c1ccccc1)C1C(C#N)=C(N)Oc2n[nH]c(-c3ccccc3)c21` (stereo not drawn), the displacement is -7.7%.

As to `O=C(Nc1cccc(Cl)c1)Nc1nnc(-c2ccncc2)s1`, the displacement stood at 12.3%.

As for `CCN(CC)c1ccc(NC(=O)c2cc3ccccc3o2)cc1`, the displacement was found to be 12.9%.

As for `C/C(=N/NS(=O)(=O)c1ccccc1)c1ccc(NC(=O)C(F)(F)F)cc1`, the displacement was -9.7%.

For `CNc1ccc(Cl)cc1C(O)c1ccccc1` (stereo not drawn), the displacement came out at 14.7%.

Take `COC(=O)c1sccc1NS(=O)(=O)c1ccc(Cl)cc1`: the displacement is 11%.

Regarding `O=C(/C=C/c1ccccc1)N1CCc2ccccc21`, the displacement was -5.5%.

In the case of `Clc1ccccc1CN1CCN(N=Cc2cccs2)CC1`, the displacement was -4%.

Consider `COC(=O)c1ccc(/C=N/NC(=O)COc2ccc(I)cc2)cc1`, for which the displacement came to 3%.

As to `Cc1ccc(Nc2cc(-n3nc(C)cc3C)ncn2)cc1`, the displacement is -2.5%.

Turning to `CNC(=S)NCCc1c[nH]c2ccc(OC)cc12`, the displacement was -3.2%.

With `CC1(C)CC(=O)C2=C(C1)Nc1ccccc1N(C(=S)Nc1ccccc1)C2c1ccc2c(c1)OCO2` (stereo not drawn), the displacement is -4.5%.

Take `O=C(Nc1ccc(I)cc1Cl)c1cc2ccccc2o1`: the displacement is -0.2%.

Regarding `O=C(/C=C/NNC(=O)c1ccccc1)c1ccc(Br)cc1`, the displacement was -6.1%.

On to `Cc1ccc(C(=O)N/C(=C/c2cccnc2)C(=O)Nc2ccc(Br)cc2)cc1`, for which the displacement is -10.5%.

As to `Cc1cccn2c(=O)c(C=O)c(N3CCCCC3)nc12`, the displacement is 3.9%.

Turning to `COc1ccc2c(=O)c(Oc3ccccc3Br)coc2c1`, the displacement was determined as 11.6%.

Turning to `CCSc1nc2sc3c(c2c2nnnn12)CCN(C)C3`, the displacement is 18.6%.

`Cc1ccc(S(=O)(=O)Nc2cc(C(C(=O)OC(C)C)C(=O)C(F)(F)F)c(O)c3ccccc23)cc1` (stereo not drawn): the displacement was -5.6%.

For the compound `CS(=O)(=O)N1CCN(c2ccc([N+](=O)[O-])c(N3CCCC3)c2)CC1`, the displacement is 0.7%.

On to `O=C1NC(=S)N/C1=C\c1ccc(F)c(Br)c1`, for which the displacement is -5.1%.

Take `COC(=O)CN(c1ccc(Br)cc1)S(=O)(=O)c1ccccc1`: the displacement worked out at 6.2%.

Consider `COc1ccc(C2NC(=O)NC(C)=C2C(=O)Nc2ccc(C)cc2)cc1OC` (stereo not drawn), for which the displacement turned out to be 1.9%.

For `CCC1CCCCN1S(=O)(=O)c1ccc(C)c(C)c1` (stereo not drawn), the displacement was -10.7%.

In the case of `COc1ccc(NC(=O)CSc2ccccc2N)c([N+](=O)[O-])c1`, the displacement amounted to 3%.

`Cc1cc(Br)cc2c(N=NC(=O)c3cccnc3)c(O)[nH]c12`: the displacement is 7.8%.

Regarding `Cc1cc(/C=C2\NC(=O)NC2=O)c(C)n1-c1cccc([N+](=O)[O-])c1`, the displacement is 10.6%.

On to `O=C(c1ccccc1Cl)N1CCN(c2nc(-c3ccccc3)c3cc(Br)ccc3n2)CC1`, for which the displacement is -5.8%.

The values above are taken from PubChem BioAssay AID1240 (Sanford-Burnham Center for Chemical Genomics, 2008).
